Experimental data reported in the supplement of paper PMC4967469.
A lower IC50 marks a more sensitive line; where the fit passes the top or lowest dose, that dose stands as a limit. AUC is the area under the same curve over the 256-fold range up to the top dose, as a fraction; the more sensitive the line, the further below 1. An inferred top dose was calculated from the reported fits. For part of these data: Where an entry number is given, a second screen of the drug exists; the two often differ.

Legend:
Test in all cases: Viability of human cancer cell lines after 72 h of drug (GDSC screen)
RDEA119 = compound: COc1cc(F)c(F)c(Nc2ccc(I)cc2F)c1NS(=O)(=O)C1(C[C@H](O)CO)CC1 [RDEA119]; details: top dose 5 µM, top dose inferred
Protocol: (§1)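 Human cancer cell lines in 384-well plates, medium with 10% serum, drug for 72 h over a 256-fold dose range (nine 2-fold or five 4-fold steps up to the top dose). Adherent lines were fixed and stained with the nucleic acid dye Syto60, suspension lines read with resazurin; signal relative to control wells, capped at 0 and 100%. One two-parameter sigmoid per drug and line, fitted in a mixed model over all curves with the slope shared within a line.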

CUDC-101 = compound: C#Cc1cccc(Nc2ncnc3cc(OC)c(OCCCCCCC(=O)NO)cc23)c1 [CUDC-101]; details: top dose 5.12 µM; top dose inferred
Protocol: as §1

5-Fluorouracil = compound: O=c1[nH]cc(F)c(=O)[nH]1 [5-Fluorouracil]; details: top dose 32 µM; top dose inferred
Protocol: as §1

AC220 = compound: CC(C)(C)c1cc(NC(=O)Nc2ccc(-c3cn4c(n3)sc3cc(OCCN5CCOCC5)ccc34)cc2)no1 [AC220]; details: top dose 1.024 µM; top dose inferred
Protocol: as §1

Cell Line | AUC (RDEA119; screen: GDSC drug entry 1014) | IC50 (RDEA119; screen: GDSC drug entry 1014) | AUC (RDEA119; screen: GDSC drug entry 1526) | IC50 (RDEA119; screen: GDSC drug entry 1526) | AUC (CUDC-101) | IC50 (CUDC-101) | AUC (5-Fluorouracil) | IC50 (5-Fluorouracil) | AUC (AC220) | IC50 (AC220)
CADO-ES1 (Ewing sarcoma, suspension) | 0.984 | > 5 µM | 0.96 | > 5 µM | 0.544 | 0.422 µM | 0.486 | 1.83 µM | 0.957 | > 1.02 µM
CHP-134 (neuroblastoma, suspension) | 0.98 | > 5 µM | – | – | 0.384 | 0.141 µM | 0.509 | 2.13 µM | 0.955 | > 1.02 µM
COR-L303 (small cell lung carcinoma, suspension) | – | – | – | – | 0.165 | 0.032 µM | 0.889 | > 32 µM | 0.981 | > 1.02 µM
COR-L321 (lung, suspension) | 0.984 | > 5 µM | 0.987 | > 5 µM | 0.16 | 0.0291 µM | 0.894 | > 32 µM | 0.948 | > 1.02 µM
D-423MG (glioma, adherent) | 0.836 | 4.41 µM | 0.874 | > 5 µM | 0.463 | 0.247 µM | 0.826 | 25.3 µM | 0.976 | > 1.02 µM
D-566MG (glioma, adherent) | 0.862 | 4.17 µM | – | – | 0.458 | 0.246 µM | 0.885 | > 32 µM | 0.982 | > 1.02 µM
DOV13 (ovary, adherent) | 0.723 | 1.5 µM | 0.776 | 2.32 µM | 0.966 | > 5.12 µM | 0.768 | 13.8 µM | 0.983 | > 1.02 µM
EMC-BAC-1 (lung adenocarcinoma, adherent) | 0.787 | 2.51 µM | 0.827 | 3.63 µM | 0.493 | 0.306 µM | 0.859 | > 32 µM | 0.969 | > 1.02 µM
EMC-BAC-2 (lung adenocarcinoma, adherent) | 0.638 | 0.808 µM | 0.798 | 2.91 µM | 0.545 | 0.433 µM | 0.862 | > 32 µM | 0.979 | > 1.02 µM
ESO26 (oesophagus, adherent) | 0.922 | > 5 µM | 0.983 | > 5 µM | 0.472 | 0.27 µM | 0.546 | 2.65 µM | 0.985 | > 1.02 µM
ESO51 (oesophagus, semi-adherent) | 0.554 | 0.466 µM | 0.805 | 3.86 µM | 0.659 | 1.07 µM | 0.598 | 4.16 µM | 0.98 | > 1.02 µM
Hey (ovary, adherent) | 0.631 | 0.702 µM | 0.722 | 1.27 µM | 0.452 | 0.239 µM | 0.562 | 2.93 µM | 0.988 | > 1.02 µM
JHOS-2 (ovary, adherent) | 0.528 | 0.377 µM | 0.671 | 1.02 µM | 0.524 | 0.377 µM | 0.916 | > 32 µM | 0.983 | > 1.02 µM
JHOS-3 (ovary, adherent) | 0.724 | 1.64 µM | 0.768 | 2.39 µM | 0.822 | 4.13 µM | 0.943 | > 32 µM | 0.953 | > 1.02 µM
KMS-11 (myeloma, suspension) | 0.943 | > 5 µM | 0.966 | > 5 µM | 0.519 | 0.358 µM | 0.876 | 24 µM | 0.981 | > 1.02 µM
KYAE-1 (oesophagus, suspension) | 0.886 | > 5 µM | 0.93 | > 5 µM | 0.632 | 0.772 µM | 0.825 | 21.9 µM | 0.824 | 0.699 µM
MOLT-13 (T-cell lymphoblastic leukaemia, suspension) | 0.44 | 0.219 µM | 0.596 | 0.552 µM | 0.118 | 0.024 µM | 0.928 | > 32 µM | 0.903 | > 1.02 µM
NCC021 (kidney, adherent) | 0.916 | > 5 µM | 0.913 | > 5 µM | 0.625 | 0.751 µM | 0.969 | > 32 µM | 0.983 | > 1.02 µM
OACM5-1 (oesophagus, semi-adherent) | 0.986 | > 5 µM | 0.984 | > 5 µM | 0.532 | 0.395 µM | 0.758 | 12.4 µM | 0.77 | 0.439 µM
OACp4C (oesophagus, adherent) | 0.7 | 1.29 µM | 0.712 | 1.42 µM | 0.308 | 0.0821 µM | 0.871 | > 32 µM | 0.982 | > 1.02 µM
OC-314 (ovary, adherent) | 0.929 | > 5 µM | 0.893 | 4.48 µM | 0.507 | 0.334 µM | 0.512 | 2.14 µM | 0.991 | > 1.02 µM
OV-7 (ovary, adherent) | 0.827 | > 5 µM | 0.803 | 4.22 µM | 0.687 | 1.42 µM | 0.906 | > 32 µM | 0.942 | > 1.02 µM
OV-17R (ovary, adherent) | 0.866 | > 5 µM | 0.957 | > 5 µM | 0.431 | 0.193 µM | 0.899 | > 32 µM | 0.973 | > 1.02 µM
OV-56 (ovary, adherent) | 0.759 | 1.68 µM | 0.802 | 2.34 µM | 0.732 | 1.42 µM | 0.813 | 16.4 µM | 0.989 | > 1.02 µM
OVCA420 (ovary, adherent) | 0.585 | 0.575 µM | 0.613 | 0.71 µM | 0.661 | 1.04 µM | 0.929 | > 32 µM | 0.981 | > 1.02 µM
OVCA433 (ovary, adherent) | 0.658 | 0.907 µM | 0.635 | 0.773 µM | 0.639 | 0.812 µM | 0.936 | > 32 µM | 0.983 | > 1.02 µM
